This is one part of the list.
What was measured:
Experiment in all cases: glycan array binding signal (z-score within array); higher = stronger binding
Details in all cases: glycan notation: IUPAC condensed, linker removed
[1] = molecular target: Man(a1-2)Man(a1-3)[Man(a1-6)]Man(a1-6)[Man(a1-2)Man(a1-3)]Man(b1-4)GlcNAc(b1-4)GlcNAc
Procedure, shortened: (§1)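 Negative Z-scores can be read as non-binding. The Z-score is calculated within each array and then averaged across arrays of one protein sequence at different concentrations or buffers and across linkers. Arrays, 3228 in all, were curated from the Consortium for Functional Glycomics database and kept only where the protein sequence was available.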

[2] = molecular target: Man(a1-2)Man(a1-6)[Man(a1-3)]Man(a1-6)[Man(a1-2)Man(a1-2)Man(a1-3)]Man
Procedure, shortened: as §1

[3] = molecular target: Man(a1-2)Man(a1-6)[Man(a1-3)]Man(a1-6)[Man(a1-2)Man(a1-2)Man(a1-3)]Man(b1-4)GlcNAc(b1-4)GlcNAc
Procedure, shortened: as §1

Man(a1-3)[Man(a1-6)]Man = molecular target: Man(a1-3)[Man(a1-6)]Man
Procedure, shortened: as §1

[4] = molecular target: Man(a1-3)[Man(a1-6)]Man(a1-6)[Man(a1-2)Man(a1-3)]Man(b1-4)GlcNAc(b1-4)GlcNAc
Procedure, shortened: as §1

[5] = molecular target: Man(a1-3)[Man(a1-6)]Man(a1-6)[Man(a1-3)]Man
Procedure, shortened: as §1

[6] = molecular target: Man(a1-3)[Man(a1-6)]Man(a1-6)[Man(a1-3)]Man(b1-4)GlcNAc(b1-4)GlcNAc
Procedure, shortened: as §1

[7] = molecular target: Man(a1-3)[Man(a1-6)]Man(b1-4)GlcNAc(b1-4)GlcNAc
Procedure, shortened: as §1

Man(a1-6)Man = molecular target: Man(a1-6)Man
Procedure, shortened: as §1

Man(b1-4)GlcNAc = molecular target: Man(b1-4)GlcNAc
Procedure, shortened: as §1

Neu5Ac(a2-3)Gal = molecular target: Neu5Ac(a2-3)Gal
Procedure, shortened: as §1

[8] = molecular target: Neu5Ac(a2-3)Gal(b1-3)GalNAc
Procedure, shortened: as §1

[9] = molecular target: Neu5Ac(a2-3)Gal(b1-3)GalNAc(b1-3)Gal(a1-4)Gal(b1-4)Glc
Procedure, shortened: as §1

[10] = molecular target: Neu5Ac(a2-3)Gal(b1-3)GalNAc(b1-4)[Neu5Ac(a2-3)]Gal(b1-4)Glc
Procedure, shortened: as §1

[11] = molecular target: Neu5Ac(a2-3)Gal(b1-3)GalNAc(b1-4)[Neu5Ac(a2-8)Neu5Ac(a2-3)]Gal(b1-4)Glc
Procedure, shortened: as §1

[12] = molecular target: Neu5Ac(a2-3)Gal(b1-3)GalNAc6S
Procedure, shortened: as §1

[13] = molecular target: Neu5Ac(a2-3)Gal(b1-3)GlcNAc
Procedure, shortened: as §1

[14] = molecular target: Neu5Ac(a2-3)Gal(b1-3)GlcNAc(b1-3)Gal(b1-3)GlcNAc
Procedure, shortened: as §1

[15] = molecular target: Neu5Ac(a2-3)Gal(b1-3)GlcNAc(b1-3)Gal(b1-4)GlcNAc
Procedure, shortened: as §1

[16] = molecular target: Neu5Ac(a2-3)Gal(b1-3)GlcNAc(b1-3)GalNAc
Procedure, shortened: as §1

[17] = molecular target: Neu5Ac(a2-3)Gal(b1-3)GlcNAc6S
Procedure, shortened: as §1

[18] = molecular target: Neu5Ac(a2-3)Gal(b1-3)[Fuc(a1-4)]GlcNAc
Procedure, shortened: as §1

[19] = molecular target: Neu5Ac(a2-3)Gal(b1-3)[Fuc(a1-4)]GlcNAc(b1-3)Gal(b1-3)[Fuc(a1-4)]GlcNAc
Procedure, shortened: as §1

[20] = molecular target: Neu5Ac(a2-3)Gal(b1-3)[Fuc(a1-4)]GlcNAc(b1-3)Gal(b1-4)[Fuc(a1-3)]GlcNAc
Procedure, shortened: as §1

[21] = molecular target: Neu5Ac(a2-3)Gal(b1-3)[Neu5Ac(a2-3)Gal(b1-4)]GlcNAc
Procedure, shortened: as §1

[22] = molecular target: Neu5Ac(a2-3)Gal(b1-3)[Neu5Ac(a2-6)]GalNAc
Procedure, shortened: as §1

Neu5Ac(a2-3)Gal(b1-4)Glc = molecular target: Neu5Ac(a2-3)Gal(b1-4)Glc
Procedure, shortened: as §1

[23] = molecular target: Neu5Ac(a2-3)Gal(b1-4)GlcNAc
Procedure, shortened: as §1

[24] = molecular target: Neu5Ac(a2-3)Gal(b1-4)GlcNAc(b1-2)Man(a1-3)[GlcNAc(b1-2)Man(b1-4)GlcNAc(b1-2)Man(a1-6)]Man(b1-4)GlcNAc(b1-4)GlcNAc
Procedure, shortened: as §1

[25] = molecular target: Neu5Ac(a2-3)Gal(b1-4)GlcNAc(b1-2)Man(a1-3)[Neu5Ac(a2-6)Gal(b1-4)GlcNAc(b1-2)Man(a1-6)]Man(b1-4)GlcNAc(b1-4)GlcNAc
Procedure, shortened: as §1

[26] = molecular target: Neu5Ac(a2-3)Gal(b1-4)GlcNAc(b1-3)Gal
Procedure, shortened: as §1

[27] = molecular target: Neu5Ac(a2-3)Gal(b1-4)GlcNAc(b1-3)Gal(b1-3)GlcNAc
Procedure, shortened: as §1

[28] = molecular target: Neu5Ac(a2-3)Gal(b1-4)GlcNAc(b1-3)Gal(b1-4)GlcNAc
Procedure, shortened: as §1

[29] = molecular target: Neu5Ac(a2-3)Gal(b1-4)GlcNAc(b1-3)Gal(b1-4)GlcNAc(b1-3)Gal(b1-4)GlcNAc
Procedure, shortened: as §1

[30] = molecular target: Neu5Ac(a2-3)Gal(b1-4)GlcNAc(b1-3)Gal(b1-4)[Fuc(a1-3)]GlcNAc
Procedure, shortened: as §1

[31] = molecular target: Neu5Ac(a2-3)Gal(b1-4)GlcNAc(b1-3)GalNAc
Procedure, shortened: as §1

[32] = molecular target: Neu5Ac(a2-3)Gal(b1-4)GlcNAc(b1-6)[Gal(b1-3)]GalNAc
Procedure, shortened: as §1

[33] = molecular target: Neu5Ac(a2-3)Gal(b1-4)GlcNAc(b1-6)[Neu5Ac(a2-3)Gal(b1-3)]GalNAc
Procedure, shortened: as §1

[34] = molecular target: Neu5Ac(a2-3)Gal(b1-4)GlcNAc6S
Procedure, shortened: as §1

[35] = molecular target: Neu5Ac(a2-3)Gal(b1-4)[Fuc(a1-3)]GlcNAc
Procedure, shortened: as §1

[36] = molecular target: Neu5Ac(a2-3)Gal(b1-4)[Fuc(a1-3)]GlcNAc(b1-3)Gal
Procedure, shortened: as §1

[37] = molecular target: Neu5Ac(a2-3)Gal(b1-4)[Fuc(a1-3)]GlcNAc(b1-3)Gal(b1-4)GlcNAc
Procedure, shortened: as §1

[38] = molecular target: Neu5Ac(a2-3)Gal(b1-4)[Fuc(a1-3)]GlcNAc(b1-3)Gal(b1-4)[Fuc(a1-3)]GlcNAc(b1-3)Gal(b1-4)[Fuc(a1-3)]GlcNAc
Procedure, shortened: as §1

[39] = molecular target: Neu5Ac(a2-3)Gal(b1-4)[Fuc(a1-3)]GlcNAc(b1-3)GalNAc
Procedure, shortened: as §1

[40] = molecular target: Neu5Ac(a2-3)Gal(b1-4)[Fuc(a1-3)]GlcNAc(b1-6)[Gal(b1-3)]GalNAc
Procedure, shortened: as §1

B1: PpFlo3 (Pichia pastoris) (protein)
chain: MGSSHHHHHHSSGLVPRGSHMQESGNGTTSDTAYACDIGATPFDGFNATIYQYQASDDNSIQDPVFMSTGYLQRNQLHSTTGVTNPGFNIFTAGVATTTLYGIPNVNYQNMLLELKGYFRADASGNYGLSLRNIDDSAILFFGRETAFECCNENLIPLDEAPTDYSLFTIKEGEASTNPDSYTYTQYLEAGRYYPVRTFFANIRTRAVFNFTMTLPDGSELTDFQNYIFQFGALNQ
- glycan array binding signal (z-score) [1]: -0.272
- glycan array binding signal (z-score) [2]: -0.282
- glycan array binding signal (z-score) [3]: -0.271
- glycan array binding signal (z-score) (Man(a1-3)[Man(a1-6)]Man): -0.27
- glycan array binding signal (z-score) [4]: -0.257
- glycan array binding signal (z-score) [5]: -0.274
- glycan array binding signal (z-score) [6]: -0.319
- glycan array binding signal (z-score) [7]: 0.342
- glycan array binding signal (z-score) (Man(a1-6)Man): -0.283
- glycan array binding signal (z-score) (Man(b1-4)GlcNAc): -0.282
- glycan array binding signal (z-score) (Neu5Ac(a2-3)Gal): -0.283
- glycan array binding signal (z-score) [8]: -0.265
- glycan array binding signal (z-score) [9]: -0.262
- glycan array binding signal (z-score) [10]: -0.261
- glycan array binding signal (z-score) [11]: -0.276
- glycan array binding signal (z-score) [12]: -0.29
- glycan array binding signal (z-score) [13]: -0.232
- glycan array binding signal (z-score) [14]: -0.252
- glycan array binding signal (z-score) [15]: -0.254
- glycan array binding signal (z-score) [16]: -0.223
- glycan array binding signal (z-score) [17]: -0.301
- glycan array binding signal (z-score) [18]: -0.282
- glycan array binding signal (z-score) [19]: -0.27
- glycan array binding signal (z-score) [20]: -0.308
- glycan array binding signal (z-score) [21]: -0.271
- glycan array binding signal (z-score) [22]: -0.211
- glycan array binding signal (z-score) (Neu5Ac(a2-3)Gal(b1-4)Glc): -0.285
- glycan array binding signal (z-score) [23]: -0.264
- glycan array binding signal (z-score) [24]: -0.209
- glycan array binding signal (z-score) [25]: -0.296
- glycan array binding signal (z-score) [26]: -0.304
- glycan array binding signal (z-score) [27]: -0.115
- glycan array binding signal (z-score) [28]: -0.273
- glycan array binding signal (z-score) [29]: -0.167
- glycan array binding signal (z-score) [30]: -0.271
- glycan array binding signal (z-score) [31]: -0.213
- glycan array binding signal (z-score) [32]: -0.281
- glycan array binding signal (z-score) [33]: -0.263
- glycan array binding signal (z-score) [34]: -0.261
- glycan array binding signal (z-score) [35]: -0.23
- glycan array binding signal (z-score) [36]: -0.27
- glycan array binding signal (z-score) [37]: -0.251
- glycan array binding signal (z-score) [38]: -0.266
- glycan array binding signal (z-score) [39]: -0.286
- glycan array binding signal (z-score) [40]: -0.285

— the supplement of paper PMC8728848
